Experimental data taken from US20250092146A1 (ABILITA BIO, published 2025).
Changes are numbered by the printed parent chain. Numbers in names are those of the source.

B1: VHH-2-Fc (Fc fusion)
chain: QVQLQESGGGLVQAGGSLRLTCAVSGSTSTINRFAWYRQAPGKQRELVAATSSRTSPNYADSVKGRFRFSRDNARSAVYLQMDNLRPEDTAVYFCQARMAMGSSQVVYWGLGTQVTVSS[human IgG1 Fc not given here]
notes: Bivalent; also called VHH-2 (as Fc fusion)
B2: VHH-2.3-Fc (Fc fusion)
chain: EVQLVESGGGLVQPGGSLRLSCAVSGSTSTINRFAWYRQAPGKGRELVAATSSRTSPNYADSVKGRFTFSRDNSKNTVYLQMNSLRAEDTAVYYCQARMAMGSSQVVYWGQGTTVTVSS[human IgG1 Fc not given here]
notes: Humanized VHH-2, version 3, fused directly to the short hinge of human IgG1 Fc
B3: VHH-2.3-2-Fc (Fc fusion)
chain: B2 chain with D72G, M99K
notes: Against VHH-2.3 (IMGT): D81G, M108K
B4: VHH-2-Fc-DE (Fc fusion)
chain: QVQLQESGGGLVQAGGSLRLTCAVSGSTSTINRFAWYRQAPGKQRELVAATSSRTSPNYADSVKGRFRFSRDNARSAVYLQMDNLRPEDTAVYFCQARMAMGSSQVVYWGLGTQVTVSS[human IgG1 Fc with changes not given here]
B5: VHH-1-Fc-DE (Fc fusion)
chain: QVQLQESGGGLVQAGGSLRLSCVASGSTSSIRRIGWYRQAPGKQRELVARFSSGGGTNYADFVKGRFTISGDNAKNTMYLQMNSLKPEDTAVYYCSARRLLGTSRVDYWGQGTQVTVSS[human IgG1 Fc with changes not given here]
B6: VHH-1-Fc (Fc fusion)
chain: QVQLQESGGGLVQAGGSLRLSCVASGSTSSIRRIGWYRQAPGKQRELVARFSSGGGTNYADFVKGRFTISGDNAKNTMYLQMNSLKPEDTAVYYCSARRLLGTSRVDYWGQGTQVTVSS[human IgG1 Fc not given here]
notes: Bivalent; also called VHH-1 (as Fc fusion)
B7: VHH-1.3-Fc (Fc fusion)
chain: B6 chain with Q1E, Q5V, A14P, V23A, Q44G, F62S, A74S, K86R, P87A, Q114T
notes: Humanized VHH-1, version 3, fused directly to the short hinge of human IgG1 Fc
B8: VHH-1.3-19-Fc (Fc fusion)
chain: EVQLVESGGGLVQPGGSLRLSCAVSGSTSSIRGIGWYRQAPGKGRELVAHFSSGGGTNYADSVKGRFTISGDKSKNTMYLQMNSLRAEDTAVYYCSARRLLGTSRVDYWGQGTQVTVSS[human IgG1 Fc not given here]
notes: Against VHH-1.3 (IMGT): A25V, R38G, R55H, N83K

How the values were obtained:
human CCR8 (hCCR8) [1] = target: T1, human CCR8 (hCCR8) (human, UniProt P51685 1-355); assay: cell-based or functional assay
human CCR8 (hCCR8) [2] = target: T1, human CCR8 (hCCR8); assay: flow cytometry on HEK293-hCCR8 cells
T1 sequence (P51685 whole entry, the tested form may be a part): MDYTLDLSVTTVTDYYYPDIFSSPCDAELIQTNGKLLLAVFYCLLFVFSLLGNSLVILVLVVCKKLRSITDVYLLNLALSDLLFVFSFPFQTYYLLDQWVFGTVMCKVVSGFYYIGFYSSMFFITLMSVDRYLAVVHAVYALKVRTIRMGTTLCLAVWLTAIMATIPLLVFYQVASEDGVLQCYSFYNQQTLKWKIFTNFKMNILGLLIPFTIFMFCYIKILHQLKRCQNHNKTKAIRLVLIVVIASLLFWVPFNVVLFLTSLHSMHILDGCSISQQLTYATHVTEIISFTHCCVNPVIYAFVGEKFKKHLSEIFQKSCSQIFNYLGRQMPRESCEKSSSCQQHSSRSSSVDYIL

human CCR8 (hCCR8) [3] = target: T1, human CCR8 (hCCR8); assay: flow cytometry on HEK293-hCCR8 cells, VHH-Fc
human CCR8 (hCCR8) [4] = target: T1, human CCR8 (hCCR8); assay: flow cytometry on HuT-78 cells, VHH-Fc fusion
human CCR8 (hCCR8) [5] = target: T1, human CCR8 (hCCR8); assay: flow cytometry on HEK293-hCCR8 cells; normalized to VHH-2-Fc
human CCR8 (hCCR8) [6] = target: T1, human CCR8 (hCCR8); assay: flow cytometry on HEK293-hCCR8 cells; normalized to parental clone
human CCR8 (hCCR8) [7] = target: T1, human CCR8 (hCCR8); assay: flow cytometry on HuT-78 cells, VHH-Fc fusion; normalized to VHH-2
human CCR8 (hCCR8) [8] = target: T1, human CCR8 (hCCR8); assay: flow cytometry on HEK293-hCCR8 cells, VHH-Fc; normalized to wild type VHH-2-Fc
human CCR8 (hCCR8) [9] = target: T1, human CCR8 (hCCR8); assay: cell-based or functional assay; remark: listed apart in the source
human CCR8 (hCCR8) [10] = target: T1, human CCR8 (hCCR8); assay: flow cytometry on HEK293-hCCR8 cells, VHH-Fc; remark: listed apart in the source
human CCR8 (hCCR8) [11] = target: T1, human CCR8 (hCCR8); assay: flow cytometry on HEK293-hCCR8 cells; normalized to VHH-1-Fc
human CCR8 (hCCR8) [12] = target: T1, human CCR8 (hCCR8); assay: flow cytometry on HuT-78 cells, VHH-Fc fusion; normalized to VHH-1
human CCR8 (hCCR8) [13] = target: T1, human CCR8 (hCCR8); assay: flow cytometry on HEK293-hCCR8 cells, VHH-Fc; normalized to wild type VHH-1-Fc
human CCR8 (hCCR8) [14] = target: T1, human CCR8 (hCCR8); assay: cell-based or functional assay; remark: listed apart in the source

| EC50 (human CCR8 (hCCR8) [4]) | Bmax % (human CCR8 (hCCR8) [6]) | Normalized Bmax (%) (human CCR8 (hCCR8) [7]) | IC50 (nM), inhibition in β-arrestin assay (CCL1 at EC80) (human CCR8 (hCCR8) [9]) | Normalized Bmax (%) (human CCR8 (hCCR8) [12]) | also measured | Binder |
| --- | --- | --- | --- | --- | --- | --- |
| 0.24 nM | 100% | 100% | – | – | IC50, inhibition of CCL1-induced β-arrestin recruitment (DiscoverX PathHunter eXpress), CCL1 at EC80 (human CCR8 (hCCR8) [1]): < 1 nM; EC50 (human CCR8 (hCCR8) [2]): 1.24 nM; EC50 (human CCR8 (hCCR8) [3]): 1.3 nM; Bmax % (human CCR8 (hCCR8) [5]): 100%; % Bmax (human CCR8 (hCCR8) [8]): 100% | B1 |
| 1.19 nM | 94.4% | 88.8% | – | – | – | B2 |
| 0.12 nM | – | 132% | 0.11 nM | – | – | B3 |
| – | – | – | – | – | EC50, ADCC reporter assay (human FcγRIIIa V158 NFAT-luciferase Jurkat effector cells, HuT-78 target cells) (human CCR8 (hCCR8) [1]): 0.0079 nM | B4 |
| – | – | – | – | – | EC50, ADCC reporter assay (human FcγRIIIa V158 NFAT-luciferase Jurkat effector cells, HuT-78 target cells) (human CCR8 (hCCR8) [1]): 0.0037 nM | B5 |
| 2.56 nM | 100% | – | 0.34 nM | 100% | IC50, inhibition of CCL1-induced β-arrestin recruitment (DiscoverX PathHunter eXpress), CCL1 at EC80 (human CCR8 (hCCR8) [1]): < 1 nM; EC50 (human CCR8 (hCCR8) [2]): 2.97 nM; EC50 (human CCR8 (hCCR8) [10]): 1.73 nM; Bmax % (human CCR8 (hCCR8) [11]): 100%; % Bmax (human CCR8 (hCCR8) [13]): 100% | B6 |
| 5.46 nM | 116% | – | 0.26 nM | 88.6% | – | B7 |
| 0.45 nM | – | – | 0.59 nM | 130% | EC50 (nM), ADCC reporter assay, human FcγRIIIa effector cells, HuT-78 target cells (human CCR8 (hCCR8) [14]): 0.11 nM; Fold Induction, ADCC reporter assay, human FcγRIIIa effector cells, HuT-78 target cells (human CCR8 (hCCR8) [14]): 5.06 fold | B8 |
